Holding throughout (experiment): glycan array binding signal (z-score within array); higher = stronger binding
Holding throughout (conditions): glycan notation: IUPAC condensed, linker removed

Assay [1] concerns the target Fuc(a1-2)[GalNAc(a1-3)]Gal(b1-4)GlcNAc(b1-3)Gal(b1-4)GlcNAc(b1-3)Gal(b1-4)GlcNAc. The method, boiled down:
(§1)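 Arrays were curated from the Consortium for Functional Glycomics database, 3228 in total, and kept only where the protein sequence was available. Binding is expressed as a within-array Z-score. This score was averaged across arrays of the same protein sequence at different concentrations or buffers and across linkers, and negative values can be read as non-binding.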

Assay [2] concerns the target Fuc(a1-2)[GalNAc(a1-3)]Gal(b1-4)GlcNAc(b1-3)GalNAc. In short, it runs like this: as §1
In assay [3] the target is Fuc(a1-2)[GalNAc(a1-3)]Gal(b1-4)GlcNAc(b1-3)[Fuc(a1-2)[GalNAc(a1-3)]Gal(b1-4)GlcNAc(b1-6)]GalNAc. In short, it runs like this: as §1
The target of assay [4] is Fuc(a1-2)[GalNAc(a1-3)]Gal(b1-4)GlcNAc(b1-6)GalNAc. The method, boiled down:
as §1

The target in assay [5] is Fuc(a1-2)[GalNAc(a1-3)]Gal(b1-4)[Fuc(a1-3)]GlcNAc. In short, it runs like this: as §1
Assay [6] has as its target Fuc(a1-2)[GalNAc(a1-3)]Gal(b1-4)[Fuc(a1-3)]GlcNAc(b1-3)GalNAc. The method, boiled down:
as §1

Assay [7] concerns the target Fuc(a1-2)[GalNAc(a1-4)]Gal(b1-4)GlcNAc. In short, it runs like this: as §1
For assay [8], the target named is Fuc(a1-2)[GalNAc(b1-3)]Gal. The method, boiled down: as §1
The target in a further assay is Fuc(a1-3)GlcNAc. In short, it runs like this:
as §1

For assay [9], the target named is Fuc(a1-3)[Gal(b1-4)]Glc6S. In short, it runs like this: as §1
Assay [10] has as its target Fuc(a1-3)[Gal(b1-4)]GlcNAc. In short, it runs like this:
as §1

Assay [11] has as its target Fuc(a1-3)[Gal(b1-4)]GlcNAc(b1-2)Man. In short, it runs like this:
as §1

Assay [12] concerns the target Fuc(a1-3)[Gal(b1-4)]GlcNAc(b1-2)Man(a1-3)[Fuc(a1-3)[Gal(b1-4)]GlcNAc(b1-2)Man(a1-6)]Man(b1-4)GlcNAc(b1-4)GlcNAc. The method, boiled down:
as §1

For assay [13], the target named is Fuc(a1-3)[Gal(b1-4)]GlcNAc(b1-2)Man(a1-3)[Fuc(a1-3)[Gal(b1-4)]GlcNAc(b1-2)Man(a1-6)]Man(b1-4)GlcNAc(b1-4)[Fuc(a1-6)]GlcNAc. In short, it runs like this:
as §1

Assay [14] deals with Fuc(a1-3)[Gal(b1-4)]GlcNAc(b1-3)Gal(b1-3)[Fuc(a1-4)]GlcNAc. The method, boiled down:
as §1

The target of assay [15] is Fuc(a1-3)[Gal(b1-4)]GlcNAc(b1-3)Gal(b1-4)[Fuc(a1-3)]GlcNAc. In short, it runs like this:
as §1

Assay [16] has as its target Fuc(a1-3)[Gal(b1-4)]GlcNAc(b1-3)Gal(b1-4)[Fuc(a1-3)]GlcNAc(b1-3)Gal(b1-4)[Fuc(a1-3)]GlcNAc. In short, it runs like this:
as §1

Assay [17] deals with Fuc(a1-3)[Gal(b1-4)]GlcNAc(b1-3)GalNAc. In short, it runs like this:
as §1

For assay [18], the target named is Fuc(a1-3)[Gal(b1-4)]GlcNAc(b1-6)GalNAc. The method, boiled down:
as §1

For assay [19], the target named is Fuc(a1-3)[Gal(b1-4)]GlcNAc(b1-6)[Gal(b1-3)GlcNAc(b1-3)]Gal(b1-4)Glc. The method, boiled down:
as §1

Assay [20] concerns the target Fuc(a1-3)[Gal(b1-4)]GlcNAc6S. The method, boiled down: as §1
For assay [21], the target named is Fuc(a1-3)[Gal3S(b1-4)]Glc. In short, it runs like this:
as §1

The target of assay [22] is Fuc(a1-3)[Gal3S(b1-4)]GlcNAc. In short, it runs like this:
as §1

Some of the results follow.

B1: rCnSL-proB (Clitocybe nebularis) (protein)
chain: PTFSPIFALLAFLPFGTLASLLPQTQLVFRINPNLPGPNDVFVGYRGTNNVVGAIYERDGIKDTPMNNGADAELGPGSYITDDLFTAQIFASGSAGNNPGTTATVCKIYADGVQWRGAPKGYLPVLYFGNGQAAEQTRQTYLQGLDIPGTAIRFANLAKTPNQGPTAPRQMVVPSGGLQTLLKASCFPANHAALPQVLSYFNVRAALPPGWNIRTGPEFPNWTN
On to B1, for which the “glycan array binding signal (z-score)” value in assay [1] is 0.895; in assay [2] it was -0.544; in [3], -0.374; in [4], -0.767; in [5], -0.654; in [6] it was 0.31. The “glycan array binding signal (z-score)” value in assay [7] was -1.11; in assay [8], 0.306; with Fuc(a1-3)GlcNAc, -0.77; in [9] it was -0.107; in [10] it was -0.518; in [11], -0.565. Also, the “glycan array binding signal (z-score)” value is -0.418 in assay [12]; 1.33 in assay [13]; -0.344 in assay [14]; 0.183 in [15]; 0.411 in [16]; -0.061 in assay [17]. In addition, the “glycan array binding signal (z-score)” value in assay [18] is 0.286; in [19], -0.826; in assay [20], 0.15; in [21], -0.261; in assay [22] it was -0.434.

Source of the values: the supplement of paper PMC8728848.
